From article PMC4336329 (PLoS ONE, 2015)
About 14,000 (4.5%) of roughly 310,000 compounds showed an effect of 50% or more. Effects have a minus sign here. The list shows a part of the results.

biological target: human ether-à-go-go-related gene (hERG) potassium channel (human, UniProt Q12809); experiment: primary screen, population patch clamp on CHO cells stably expressing hERG
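Further: peak tail current of the secondary pulse compared with the same well before compound.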

Sequence of human ether-à-go-go-related gene (hERG) potassium channel (Q12809 whole entry, looked up): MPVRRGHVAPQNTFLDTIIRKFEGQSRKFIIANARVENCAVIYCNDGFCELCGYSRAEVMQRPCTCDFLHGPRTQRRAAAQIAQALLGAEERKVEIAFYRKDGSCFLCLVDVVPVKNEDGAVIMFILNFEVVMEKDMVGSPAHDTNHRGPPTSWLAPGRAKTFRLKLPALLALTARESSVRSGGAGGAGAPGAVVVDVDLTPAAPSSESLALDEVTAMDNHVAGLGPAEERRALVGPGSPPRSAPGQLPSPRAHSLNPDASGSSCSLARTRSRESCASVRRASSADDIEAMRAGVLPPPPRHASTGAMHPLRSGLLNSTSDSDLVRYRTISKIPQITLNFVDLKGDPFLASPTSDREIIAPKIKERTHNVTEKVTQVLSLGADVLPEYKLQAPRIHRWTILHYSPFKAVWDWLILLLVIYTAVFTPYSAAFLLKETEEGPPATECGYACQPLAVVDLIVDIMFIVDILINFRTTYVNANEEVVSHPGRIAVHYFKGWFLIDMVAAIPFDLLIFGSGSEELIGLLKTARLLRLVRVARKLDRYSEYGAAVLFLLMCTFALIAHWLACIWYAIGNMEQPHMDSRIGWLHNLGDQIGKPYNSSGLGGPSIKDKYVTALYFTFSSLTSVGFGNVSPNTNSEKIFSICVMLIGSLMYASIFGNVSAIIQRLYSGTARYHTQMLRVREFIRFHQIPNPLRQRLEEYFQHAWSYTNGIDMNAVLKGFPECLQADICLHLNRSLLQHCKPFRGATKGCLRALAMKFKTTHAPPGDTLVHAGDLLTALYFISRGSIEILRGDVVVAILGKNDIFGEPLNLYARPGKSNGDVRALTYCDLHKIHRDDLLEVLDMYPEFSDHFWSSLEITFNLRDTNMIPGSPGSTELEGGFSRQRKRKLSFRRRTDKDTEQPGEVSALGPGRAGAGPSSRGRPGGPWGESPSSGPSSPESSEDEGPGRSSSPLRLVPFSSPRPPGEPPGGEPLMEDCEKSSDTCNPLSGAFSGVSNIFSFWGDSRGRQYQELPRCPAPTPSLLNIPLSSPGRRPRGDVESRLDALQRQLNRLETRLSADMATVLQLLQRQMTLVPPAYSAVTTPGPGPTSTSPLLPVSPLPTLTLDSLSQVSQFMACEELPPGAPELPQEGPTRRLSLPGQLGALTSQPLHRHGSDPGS

How did the “hERG current change (%, negative = inhibition) at 10uM” value turn out when `Brc1ccc(CN2CCN(c3ccccn3)CC2)s1` was run?
The value was -5.6%.

For `CCNC(=S)N1CCN(C(=O)c2ccco2)CC1`, which “hERG current change (%, negative = inhibition) at 10uM” value is on record?
Its value is 5.8%.

How did the “hERG current change (%, negative = inhibition) at 10uM” value turn out when `C=CCOc1ccccc1C1C2=C(CC(C)(C)CC2=O)Nc2c1c(=O)n(C)c(=O)n2C` (stereo not drawn) was run?
Its value is -3.8%.

For `COc1ccc(N2CCN(C(=O)C3CCCN(S(=O)(=O)c4cccc5cccnc45)C3)CC2)cc1` (stereo not drawn), which “hERG current change (%, negative = inhibition) at 10uM” value is on record?
The value was -32.1%.

For `COc1ccc(NS(=O)(=O)c2ccc(N3CC(O)=C(c4ccccc4)C3=N)cc2)cc1`, which “hERG current change (%, negative = inhibition) at 10uM” value is on record?
The value was 2.86%.

For `COc1ccccc1NC(=S)N1CCN(Cc2ccccc2)CC1`, which “hERG current change (%, negative = inhibition) at 10uM” value is on record?
Its value is 6.91%.

Which “hERG current change (%, negative = inhibition) at 10uM” value does the source give for `CC(C)CC(=O)Nc1ccc(-c2cn3cccnc3n2)cc1` here?
Its value is 26.3%.

How did the “hERG current change (%, negative = inhibition) at 10uM” value turn out when `Cc1ccc(Oc2coc3cc(O)ccc3c2=O)cc1` was run?
The value was 12.7%.

`Nc1nc(SCc2c(Cl)cccc2Cl)n[nH]1` was tested. Which “hERG current change (%, negative = inhibition) at 10uM” value did it give?
Its value is 11.4%.

`COc1ccccc1Nc1nc(C)cc(C)n1` was tested. Which “hERG current change (%, negative = inhibition) at 10uM” value did it give?
The value was 13.3%.

Which “hERG current change (%, negative = inhibition) at 10uM” value does the source give for `COc1cccc(-c2cn(-c3cccc(C(F)(F)F)c3)c(=S)[nH]2)c1` here?
The value was 20.4%.

For `CC1=C(C(=O)Nc2ccc(Cl)cc2)C(c2ccncc2)C(C#N)=C(SCC(N)=O)N1` (stereo not drawn), which “hERG current change (%, negative = inhibition) at 10uM” value is on record?
Its value is 4.33%.

For `O=C(CNC(=O)c1ccccc1F)OCC(=O)N1CCCCC1`, which “hERG current change (%, negative = inhibition) at 10uM” value is on record?
Its value is 4.46%.

Which “hERG current change (%, negative = inhibition) at 10uM” value does the source give for `O=C(CCc1nnc(C2(c3ccc(Cl)cc3)CCC2)o1)NCCCn1cccn1` here?
The value was -5.52%.

Which “hERG current change (%, negative = inhibition) at 10uM” value does the source give for `CCc1ccccc1NC(=O)C1CCN(c2cnccn2)CC1` here?
The value was 4.06%.

Which “hERG current change (%, negative = inhibition) at 10uM” value does the source give for `CCCc1cc(=O)[nH]c(SCC(=O)Nc2ccc([N+](=O)[O-])cc2C#N)n1` here?
The value was -29.3%.

`O=C(COc1ccc(Br)cc1)N(Cc1ccco1)C1CCS(=O)(=O)C1` (stereo not drawn) was tested. Which “hERG current change (%, negative = inhibition) at 10uM” value did it give?
The value was -50.6%.

Which “hERG current change (%, negative = inhibition) at 10uM” value does the source give for `Cc1cccc(NS(=O)(=O)c2cc(C(=O)N3CCCC3)ccc2Cl)c1` here?
The value was -4.21%.

Which “hERG current change (%, negative = inhibition) at 10uM” value does the source give for `O=C(CCS(=O)(=O)c1ccccc1)N1CCN(c2cccc(C(F)(F)F)c2)CC1` here?
Its value is -43.1%.

Which “hERG current change (%, negative = inhibition) at 10uM” value does the source give for `CC(C)CC(=O)N1CCN(S(=O)(=O)c2ccc(F)cc2)CC1` here?
The value was -1.89%.

With `Cc1cc(C)n2nc(SCC(=O)N3CCc4ccccc43)nc2n1` as the molecule, how does the “hERG current change (%, negative = inhibition) at 10uM” value read?
Its value is -3.06%.

How did the “hERG current change (%, negative = inhibition) at 10uM” value turn out when `O=C(NC1CCCCC1)c1cc(-c2ccc(O)cc2)on1` was run?
The value was 0.886%.

With `Cc1ccnc(NC(=O)c2ccc(Cl)s2)c1` as the molecule, how does the “hERG current change (%, negative = inhibition) at 10uM” value read?
Its value is 11.6%.

Which “hERG current change (%, negative = inhibition) at 10uM” value does the source give for `O=S(=O)(NC(=S)c1ccccc1)c1ccc(F)cc1` here?
Its value is 16.5%.

How did the “hERG current change (%, negative = inhibition) at 10uM” value turn out when `CCn1c2ccccc2c2cc(NC(=O)c3cc(OC)cc(OC)c3)ccc21` was run?
Its value is -0.116%.

Which “hERG current change (%, negative = inhibition) at 10uM” value does the source give for `C1CCC2CCCCC2C1` (stereo not drawn) here?
The value was 26.3%.

For `COc1cccc2c(=O)cc(C)n(CC(=O)Nc3ccc(Br)cc3)c12`, which “hERG current change (%, negative = inhibition) at 10uM” value is on record?
Its value is 12.8%.

With `COC/C=C/C1=CC2=CC(=O)C(C)(OC(=O)c3cccs3)C(=O)C2=CO1` (stereo not drawn) as the molecule, how does the “hERG current change (%, negative = inhibition) at 10uM” value read?
The value was 21.2%.

With `c1ccc(-c2nc(CSc3n[nH]c(-c4cccs4)n3)cs2)cc1` as the molecule, how does the “hERG current change (%, negative = inhibition) at 10uM” value read?
The value was -15.1%.

`Cc1cc(N2CCOCC2)n2nc(C)c(-c3ccccc3)c2n1` was tested. Which “hERG current change (%, negative = inhibition) at 10uM” value did it give?
The value was 9.17%.

How did the “hERG current change (%, negative = inhibition) at 10uM” value turn out when `COc1ccc(-n2c(=O)[nH]cc(C(=O)Nc3ccc4c(c3)OCCO4)c2=O)cc1` was run?
Its value is 8.51%.

Which “hERG current change (%, negative = inhibition) at 10uM” value does the source give for `N#CCCN(C(=O)COC(=O)CNS(=O)(=O)c1ccc2ccccc2c1)c1ccccc1` here?
The value was -3.85%.

With `CC(C)c1ccc(C2CC(=O)c3cnc(NC(=O)c4ccco4)nc3C2)cc1` (stereo not drawn) as the molecule, how does the “hERG current change (%, negative = inhibition) at 10uM” value read?
The value was -2.44%.

With `C=C(Cl)CSC(=S)N(CC)CC` as the molecule, how does the “hERG current change (%, negative = inhibition) at 10uM” value read?
The value was 12.1%.

Which “hERG current change (%, negative = inhibition) at 10uM” value does the source give for `COc1ccc(C2C(C(=O)NCC3CCCO3)c3cc(OC)c(OC)cc3C(=O)N2C)cc1OC` (stereo not drawn) here?
The value was 2.52%.

With `O=C(Oc1ccc(/C=N/NC(=O)c2ccccc2F)cc1)c1ccccc1` as the molecule, how does the “hERG current change (%, negative = inhibition) at 10uM” value read?
The value was 10.3%.

Which “hERG current change (%, negative = inhibition) at 10uM” value does the source give for `COc1cc(C(=S)N2CCCC2)cc(Cl)c1O` here?
The value was 6.77%.

`O=C(CN1C(=O)NC2(CCCc3ccccc32)C1=O)NC1CCCCC1` (stereo not drawn) was tested. Which “hERG current change (%, negative = inhibition) at 10uM” value did it give?
The value was 4.92%.

With `CC(NC(=O)c1cccs1)c1ccc(Br)cc1` (stereo not drawn) as the molecule, how does the “hERG current change (%, negative = inhibition) at 10uM” value read?
Its value is 3.75%.

For `C/C(=N/NC(=O)CNC(=O)C1COc2ccccc2O1)c1ccc([N+](=O)[O-])cc1` (stereo not drawn), which “hERG current change (%, negative = inhibition) at 10uM” value is on record?
The value was -64.7%.

Which “hERG current change (%, negative = inhibition) at 10uM” value does the source give for `O=C(Nc1ccc(Cl)cc1F)c1ccc(-n2cncn2)cc1` here?
Its value is -4.64%.

Which “hERG current change (%, negative = inhibition) at 10uM” value does the source give for `CC1C/C(=N/NC(=O)c2cccc(F)c2)c2ccc(O)cc2C1` (stereo not drawn) here?
Its value is -14.1%.

`Cc1cc2oc(C(=O)Nc3ccc(S(=O)(=O)Nc4nccs4)cc3)cc(=O)c2cc1Cl` was tested. Which “hERG current change (%, negative = inhibition) at 10uM” value did it give?
The value was -14.5%.

How did the “hERG current change (%, negative = inhibition) at 10uM” value turn out when `CCc1nc2ccccc2n1Cc1ccccc1F` was run?
The value was 11%.

With `CCS(=O)(=O)Nc1cccc(-c2ccc3nnc(-c4cccnc4)n3n2)c1` as the molecule, how does the “hERG current change (%, negative = inhibition) at 10uM” value read?
Its value is -4.03%.
